Measured values reported in PubChem BioAssay AID1240 (Sanford-Burnham Center for Chemical Genomics, 2008).
Where “and” joins values, the source holds several entries; their conditions need not be identical. Identical values can stand only once. Among all 50,000 compounds or so, about 800 (1.6%) showed an effect of 50% or more. The list shows a part of the results.

The molecules below were run against Bcl-2-like protein 10 (Homo sapiens) (UniProt Q9HD36) (assay: TR3 peptide-Bcl-B binding displacers, biochemical primary FP assay, phenotype converters (AID 1240;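 also: 0% = Bcl-B with tracer peptide and DMSO and 100% = tracer peptide lacking Bcl-B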)). Conditions: GST-Bcl-B / FITC-TR3 peptide fluorescence polarization; stronger effect = higher value; compound at 3.75 mg/L.
UniProt Q9HD36, sequence (Q9HD36 whole entry, looked up): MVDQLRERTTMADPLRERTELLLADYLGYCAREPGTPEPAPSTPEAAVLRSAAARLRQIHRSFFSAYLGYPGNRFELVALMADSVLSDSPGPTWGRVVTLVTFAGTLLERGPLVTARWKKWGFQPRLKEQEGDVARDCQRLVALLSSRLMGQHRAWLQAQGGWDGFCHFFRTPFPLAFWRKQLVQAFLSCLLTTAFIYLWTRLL
For `CC(C)C12CN3CC(C(C)C)(CN(C1)C31C(=O)Nc3ccccc31)C2=O` (stereo not given), the displacement was -5.1%.
`CN1C(=O)/C(=C\c2ccc(-c3cc(Cl)cc(Cl)c3)o2)SC1=S` showed a displacement of 9.6%.
`CCC(=O)Nc1ccc(NC(=S)NC(=O)c2ccco2)cc1` showed a displacement of 10%.
`O=C(CN(c1ccc(Br)cc1)S(=O)(=O)c1ccccc1)Nc1cccc2cccnc12` gave a displacement of -1.7%.
For `Cc1ccc(S(=O)(=O)N2CCN(S(C)(=O)=O)C2c2ccccc2)cc1` (stereo not given), the displacement was 9.6%.
In the case of `CC(CN1CCOCC1)C(=O)c1ccccc1` (stereo not given), the displacement is reported as 10.6%.
Work on `O=C(CSC1CC(=O)N(c2cccc(Br)c2)C1=O)Nc1ccc(Cl)cc1` (stereo not given) yielded a displacement of -3.8%.
Work on `COc1ccccc1C(=O)Nc1nc(-c2ccc(Br)cc2)cs1` yielded a displacement of -8.5%.
For `c1cc(CNc2ccc(N3CCOCC3)cc2)ccn1`, the displacement was 15.6%.
`CCOC(=O)c1sc(NC(=O)COc2ccc(Cl)cc2Cl)c(C(=O)OCC)c1C` gave a displacement of -4.7%.
`CC(=O)Nc1ccc(OCC(O)Cn2c3ccccc3c3ccccc32)cc1` (stereo not given) was tested, and the displacement was -7.3%.
Molecule `O=[N+]([O-])c1ccccc1NCCNS(=O)(=O)c1ccccc1` has a displacement of 13.6%.
In the case of `CCOc1ccc(C(=O)N2CCN(c3ccccc3)CC2)cc1`, the displacement is reported as -1.9%.
`CN(C)S(=O)(=O)N1CCN(c2c(Cl)cccc2[N+](=O)[O-])CC1` was tested, and the displacement was 0.9%.
`Cc1ccc(C(=O)N2N=C(c3ccncc3)CC2(O)C(F)(F)F)cc1` (stereo not given) was tested, and the displacement was -4.8%.
With `Cc1cccc(/C=N/NC(=O)Cc2nnc(N)s2)c1` the displacement was -0.8%.
With `Cc1cc(C)c(C(N)=O)c(Nc2ccc(Cl)cc2)n1` the displacement was -24.7%.
In the case of `CCOc1cc(C=C2C(=O)NC(=S)NC2=O)ccc1OCc1ccc(Cl)cc1`, the displacement is reported as 7.7%.
Work on `COc1ccc(C(=O)/C=C/c2ccccc2[N+](=O)[O-])cc1OC` yielded a displacement of 2.7%.
Molecule `COc1ccc(NC(=O)c2nc[nH]c2C(=O)Nc2ccc(OC)cc2)cc1` has a displacement of 14.4%.
`COc1ccc(C2=NN(C(C)=O)C(c3ccccc3)C2)cc1` (stereo not given) gave a displacement of 11.6%.
Molecule `COc1ccc(/C=C2\SC(=Nc3cccc(Cl)c3C)NC2=O)cc1C` has a displacement of -32.2%.
`CN1CCN(NC(=O)CN2C(=O)/C(=C/c3ccccc3Cl)SC2=S)CC1` gave a displacement of -17.5%.
For `Cc1ccccc1NC(=O)c1ccc(OCC(C)C)cc1`, the displacement was 5.9%.
With `COc1cccc(/C=C2/C(=O)NN(c3ccc(Br)cc3)C2=O)c1` the displacement was 19.9%.
Molecule `COC(=O)C1=C(C)NC(C)=C(C(=O)OC)C1/C=C/c1ccccc1` has a displacement of -13.5%.
In the case of `CC(=O)Nc1ccc(S(=O)(=O)NC(C)(C)C)cc1`, the displacement is reported as -5.4%.
Work on `C=CCc1ccccc1OCCOc1c(Br)cc(/C=N/n2cnnc2)cc1OC` yielded a displacement of 2.9%.
In the case of `Cc1cc(=O)[nH]c(SCc2cccc(Oc3ccccc3)c2)n1`, the displacement is reported as -8% and 5.2%.
With `Cc1ccccc1NC1=C(Cl)C(=O)N(c2cccc(Cl)c2Cl)C1=O` the displacement was 5.8%.
`COC(=O)CN(c1ccc(OC)cc1)S(=O)(=O)c1ccc(NC(C)=O)cc1` showed a displacement of 4.7%.
`O=C(/C=C/c1ccccc1F)c1c(-c2ccccc2)c2cc(Cl)ccc2[nH]c1=O` showed a displacement of -26.3%.
`S=C1NC(=S)/C(=C\c2ccc(-c3ccc(Br)cc3)o2)S1` gave a displacement of 37.5%.
`O=C1C(=Cc2cccc(Cl)c2)C(=O)c2ccccc21` showed a displacement of 18.1%.
`O=C(COCC(=O)N1CCOCC1)NCC(=O)N1CCOCC1` was tested, and the displacement was 2.9%.
`N#Cc1ccc(N=Cc2cccc(O)c2O)cc1` was tested, and the displacement was -1.9%.
With `COc1cccc(-n2c(O)c(C3=c4cc(Br)ccc4=NC3=O)sc2=S)c1` the displacement was 8.7%.
For `O=C(CCN1C(=O)/C(=C/c2cccs2)SC1=S)Nc1ccc(F)cc1`, the displacement was 10.6%.
With `CCCC(C)NC(=O)c1cc(Cl)ccc1Cl` (stereo not given) the displacement was 1.1%.
`COC(=O)Nc1sc2c(c1C(=O)OC)CCCCC2` gave a displacement of 23%.
Molecule `Cc1cccc(NC(=O)/C(C#N)=C/c2ccc(-c3ccccc3[N+](=O)[O-])o2)c1` has a displacement of 11.1%.
With `Cc1nnc(NS(=O)(=O)c2ccc(F)cc2)s1` the displacement was 7.8%.
Work on `Cc1cc(C)cc(N2C(=O)NC(=O)/C(=C\c3ccccc3C)C2=O)c1` yielded a displacement of 6.3%.
For `C/C(=N\NC(=O)c1ccco1)c1ccc(N)cc1`, the displacement was -5%.
In the case of `O=C(NCCNc1ccc([N+](=O)[O-])cc1)c1cccnc1`, the displacement is reported as -8.5%.
Molecule `COc1ccc(OC)c(NC(=O)CN(c2ccc(Br)cc2)S(C)(=O)=O)c1` has a displacement of -12.8%.
`O=C(Nc1cc(Cl)cc(Cl)c1)c1ccc(-c2ccc([N+](=O)[O-])cc2)o1` showed a displacement of 5.1%.
With `CCc1ccc2c(c1)C(O)(CC(=O)c1ccc(Br)cc1)C(=O)N2` (stereo not given) the displacement was -22.7%.
`COc1ccc(N=C2C(=O)Nc3ccc(C)c(Br)c32)cc1` was tested, and the displacement was 13.6%.
Molecule `COc1ccc(NC(=O)c2ccc(N(Cc3ccc(Cl)cc3)S(C)(=O)=O)cc2)c(OC)c1` has a displacement of 26.7%.
For `COCCCNS(=O)(=O)c1ccc(F)cc1`, the displacement was 1.6%.
`Cc1ccc(C)c(N2CC(C(=O)Nc3ccc([N+](=O)[O-])cc3)CC2=O)c1` (stereo not given) showed a displacement of 3.2%.
For `COc1ccc(CNc2ccc(N3CCOCC3)cc2)cc1OC`, the displacement was 22.7%.
`C=CCC1(O)CC(c2ccccc2)NC(c2ccccc2)C1C(C)C` (stereo not given) showed a displacement of -6.6%.
Molecule `Cc1ccc(N2C(=O)NC(=O)/C(=C\c3ccc(-c4cccc([N+](=O)[O-])c4)o3)C2=O)cc1` has a displacement of -5.9%.
